PubChem BioAssay AID1508623 (National Center for Advancing Translational Sciences (NCATS), 2021)
About 450 (0.94%) of roughly 48,000 compounds were called active. Inconclusive results (about 19%) are left out. Calls come from the whole dose curve; as a rule, active = well fitted inhibition curve with a large enough effect; inconclusive = small, poorly fitted or top-dose-only effect; inactive = no such curve, though single readings can be large or run the other way. The list shows a part of the results.

Test: Primary qHTS for Identification of Small Molecule Inhibitors of Huntingtin Promoter Activity; note: nearly all actives have a fitted effect of over 50% in size
Details: HEK293 HTT promoter firefly luciferase reporter (activity 0% = vehicle and -100% = no light), 24 h; series mostly up to 57.5 µM; activity change, negative = inhibition: at the top concentration
Outline: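 HEK293 luciferase promoter-reporter cells (2,500/well) plated 24 h, then compounds added at up to 57.5 uM final for 24 h at 37 °C. Firefly luminescence by Dual-Glo, normalized to vehicle (0%) and zero RLU (-100%).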

Activity change, negative = inhibition, inactive:
COc1ccc(-n2nc3c(N4CCC(C(=O)N5CCC(C)CC5)CC4)nnc(C)c3c2C)cc1 -10.9%, O=C(C1CCC1)N1CCCc2cc(S(=O)(=O)N3CCN(c4cccc(Cl)c4)CC3)ccc21 -16.7%, Cc1ccc(C)c(NC(=O)C(=O)NCCCN2CCOCC2)c1 -11.9%, O=C(NCCCN1CCN(c2ccccc2)CC1)c1sc2ncccc2c1-n1cccc1 -25.4%, CCOc1ccc(CCNC(=O)c2cnc3c(-c4ccc(F)cc4)c(C)nn3c2C)cc1 -16.1%, Nc1ncc(S(=O)(=O)NCc2ccccc2)cn1 -3.21%, COc1cc(S(=O)(=O)NCCc2c(C)[nH]c3ccc(C)cc23)ccc1Br -20.1%, COc1ccc(C(=O)c2cn(Cc3ccccc3)c3ccccc3c2=O)cc1OC -26%, COc1ccc(CN(C)c2ccc(-c3nc(-c4ccc(OC)c(OC)c4)no3)cc2[N+](=O)[O-])cc1 -5.68%, COc1cccc(-c2nnc(SCC(=O)N(C)C3CCCCC3)o2)c1 7.76%, CCOc1ccccc1CNCc1c(C(=O)O)c(C)n(Cc2ccc(C)cc2)c1C -8.45%, CN1CCc2nc3sc(C(=O)c4ccc(F)cc4)c(N)c3cc2C1 14.1%, CN1C(=O)c2cccc3c(S(=O)(=O)Nc4cccc(C(=O)O)c4)ccc1c23 -3.11%, CCN(CC)S(=O)(=O)c1ccc(OC)c(NC(=O)c2sc3ccccc3c2Cl)c1 -14.6%, Cc1ccc2c(c1)c1c(c(=O)n(Cc3ccccc3)c(=O)n1Cc1ccccc1F)n2C -8.86%, Cc1cccc(NC(=O)c2oc3ccccc3c2NC(=O)c2cc(=O)c3ccccc3o2)c1 -17.5%, CCOc1ccc(N2CC(NC(=O)c3ccc(Cl)cc3)CC2=O)cc1 (configuration not stated) -6.57%, CCOC(=O)N1CCc2c(sc3c2c(=O)n(Cc2ccccc2)c(=O)n3CC(=O)Nc2ccc(F)cc2)C1 -16.4%, NC(CO)(CO)CO -1.57%, CNC(=O)CN1C(=O)COc2ccc(S(=O)(=O)N3CCCCCC3)cc21 0.572%, O=C(CNC(=O)c1ccc(F)cc1)OCc1cc(=O)n2ccsc2n1 -3.85%, COc1ccc(C(=O)Nc2ccc3oc(-c4cccc5c(Br)cccc45)nc3c2)cc1 -0.724%, Cc1c(Cl)cccc1NC(=O)C(=O)NCCc1csc(-c2ccc(C(F)(F)F)cc2)n1 -3.87%, Cc1ccccc1Cn1c(CN2CCC(C(=O)NCc3ccc(Cl)cc3)CC2)cc2ccccc21 14%, O=S1(=O)c2ccccc2N(Cc2ccccc2F)c2ccccc21 -5.9%, COc1ccc(CCNC(=O)c2ccc(-n3c(C)cc4c3CCC(C)C4)cc2)cc1OC (configuration not stated) 4.81%, Cc1cc(C)c(OCC(=O)N(Cc2ccc(N(C)C)cc2)Cc2ccco2)c(C)c1 -28.4%, O=C(NCc1ccc2c(c1)OCO2)c1ccc2c(c1)N(Cc1c(F)cccc1Cl)C(=O)c1ccccc1S2 -18.3%, COc1ccc(C(=O)c2cn(CC(=O)Nc3cc(OC)cc(OC)c3)c3ccc(OC)cc3c2=O)cc1 -23%, COC(=O)c1ccccc1NC(=O)Cn1c(=O)n(CCC(=O)NCc2ccc3c(c2)OCO3)c(=O)c2ccccc21 5.35%, Cc1ccc(Cn2nc3n(c2=O)-c2cc(Cl)ccc2OC3)cc1 -9.32%, COc1ccc(-n2c(-c3cccc(F)c3)nc3c(cnn3-c3ccc(C)cc3)c2=O)cc1 -27.2%, Cc1ccc(-c2csc(-c3c(N)c(C(=O)c4ccc5c(c4)OCO5)n4ccccc34)n2)cc1 -0.19%, CCOC(=O)c1c(S(=O)(=O)N2CCC(C(=O)NCc3cccc(OC)c3)CC2)c(C)n(C)c1C -5.97%, Cc1cccc(N(C)C(=O)Cn2c(=O)oc3cc(S(=O)(=O)N4CCCCC4)ccc32)c1 -0.601%, COc1ccc(-c2nc3ccccc3o2)cc1NC(=O)Cc1ccc(Cl)cc1 24.5%, Cn1ccnc1SCC(=O)Nc1cccc(Br)c1 -2.17%, NC(=O)c1cc(S(=O)(=O)NCc2cccc(Br)c2)cs1 -34.8%, COC(=O)c1ccc(NC(=O)Cn2c(=O)oc3ccccc32)cc1 -4.24% [at 11.5 µM], COc1ccc(C2CC(=O)c3cc(-c4nc(-c5cccc([N+](=O)[O-])c5)cs4)c(=O)n(-c4ccccc4N)c3C2)cc1 (configuration not stated) -10.8%, COc1ccc(N2CC(NC(=O)C3CCCCC3)CC2=O)cc1 (configuration not stated) -18.4%, CCn1c(SCC(=O)Nc2cc(C)ccc2F)nnc1-c1ccccc1O -11.2%, Clc1ccc(C(Cn2ccnc2)OCc2c(Cl)cccc2Cl)c(Cl)c1 (configuration not stated) -17.3%, CCOC(=O)CNC(=O)N1CCN(S(=O)(=O)c2ccc3c(ccn3C)c2)CC1 -8.18%, COc1ccc(CC(=O)N2CC(=O)Nc3ccc(F)cc3C2c2ccccc2)cc1 (configuration not stated) -22%, Cc1ccccc1CNC(=O)Cn1c(=O)c2cccn2c2cccnc21 0.865%, CCCOc1ccc(C2c3c(oc4ccccc4c3=O)C(=O)N2c2nnc(C(C)C)s2)cc1 (configuration not stated) -14.9% [at 11.5 µM], CCc1ccc(CNC(=O)C2CCN(c3nn4cc(-c5ccc(OC)cc5)nc4s3)CC2)cc1 4.33%, COc1ccc(C2=NC(c3ccccc3)=Nc3ccc(C)cc3N2)cc1 -13.8%, COC(=O)c1ccccc1NC(=O)c1ccc(CN2CC(=O)N3CCCCC3C2=O)cc1 (configuration not stated) -22.9%, CN1CCN(C(=O)c2ccc3c(c2)N(Cc2ccc(F)cc2)C(=O)c2ccccc2S3(=O)=O)CC1 -10.9%, COc1ccc(NC(=O)CSc2nnc(-c3ccncc3)n2-c2ccccc2)cc1 -18.9%, CCC(C)NC(=O)c1c2c(nc3ccccc13)C(=O)N(C1CCCCC1)C2 (configuration not stated) -8.29%, CCOC(=O)c1cc(S(=O)(=O)Nc2ccccc2)[nH]n1 -0.896%, CCOC(=O)N[C@H](Cc1c[nH]c2ccccc12)C(=O)Nc1cccc(Cl)c1 -26.7%, CCc1ccc(C2CC(=O)Nc3c2c(=O)n(C)c2ncnn32)cc1 (configuration not stated) -2.59%, COc1ccc(C(=O)c2cn(CC(=O)Nc3cc(C)ccc3C)c3nc(C)ccc3c2=O)cc1 9.87%, CC(C)Oc1ccc(CNC(=O)C2=Cc3ccccc3OC2)cc1 7.94%, NC(=O)C1CCN(c2csc3ccc(F)cc3c2=O)CC1 -0.675%, CCn1c(CN2CCN(C)CC2)nc2cc(NC(=O)c3ccc([N+](=O)[O-])cc3)ccc21 -1.06%, COc1ccc(N2CCN(C(CNC(=O)c3ccc(OC)c(OC)c3)c3cccnc3)CC2)cc1 (configuration not stated) -14.3%, Cc1ccc(-c2nc(CSc3nnc(C)n4c3cc3occc34)c(C)o2)cc1 0.811%, CCCCSc1nnc2c(n1)OC(c1ccc(Br)s1)Nc1ccccc1-2 (configuration not stated) 19.8%, CCCCOC(=O)c1ccc(-n2nnc3c(sc4nc(C)cc(C)c43)c2=O)cc1 15.8%, CN(C)c1ccc(CNC(=O)CCCN2C(=O)c3cccnc3Oc3ccc(Cl)cc32)cc1 -1.85%, COc1ccc(CNC(=O)c2c(O)nc3c(C)cccn3c2=O)cc1 -16.5%, O=S(=O)(NCCc1nnc2ccc(SCc3ccccc3Cl)nn12)c1ccccc1 -20.3%, COc1ccc2cc1Oc1cc3c(cc1OC)CC[N+](C)(C)[C@H]3Cc1ccc(cc1)Oc1c(OC)c(OC)cc3c1[C@@H](C2)[N+](C)(C)CC3 9.66%, Cc1cc(N2CCC(C)CC2)nc2ccc(NC(=O)Cc3ccccc3Br)cc12 -19.5%, COc1cc2nc(Nc3cccc(F)c3)nc(N)c2cc1OC -15.3%, CCOc1ccc(-c2nc(-c3ccccc3)c(-c3ccccc3)[nH]2)cc1OCC -27.5%, O=C(NCc1ccccc1Cl)c1nnc(Cc2cccc(F)c2)o1 -18.6%, Cc1ccc2c(CC(=O)N(Cc3ccc(N(C)C)cc3)Cc3ccco3)coc2c1C -29.3%, Cc1ccc2oc(-c3ccc(C)c(NC(=O)/C=C/c4ccco4)c3)nc2c1 -24.2%, N#Cc1ccccc1CSc1nnc(-c2ccc(Br)cc2)o1 25.6%, Cc1ccc(CNC(=O)Cn2ccn(-c3cccc(Cl)c3)c(=O)c2=O)cc1 -8.44%, COc1cccc(-c2cc(C(F)(F)F)n3ncc(C(=O)OC(C)C)c3n2)c1 -7.32%, Cc1ccc(-c2noc(CNC(=O)c3ccc(C)c(Cl)c3)n2)cc1 3.25%, NC(=O)N1c2ccccc2C=Cc2ccccc21 3.39%, C[C@]12CC[C@@H]3c4ccc(O)cc4CC[C@H]3[C@H]1C[C@@H](O)[C@H]2O -30.4%, CCN(CC)C(=O)C1=C(C)Nc2nc3ccccc3n2C1c1cccc(OC)c1 (configuration not stated) -10.3%, CN(C(=O)CCc1nc(-c2ccccc2F)no1)c1ccc(Cl)cc1 -25.1%, O=S(=O)(c1ccc(OC(F)(F)F)cc1)N1CCC(c2nnnn2-c2ccc(F)cc2)CC1 -9.5%, Cc1ccc(NC(=O)c2nc(S(C)(=O)=O)ncc2N(Cc2ccc(C(C)(C)C)cc2)Cc2ccco2)cc1C -20.2%, COc1cc(C(=O)NCC(c2ccc3c(c2)OCO3)N2CCOCC2)cc(OC)c1OC (configuration not stated) 0.339%, CCn1cc(C(=O)OCC(=O)Nc2ccc(C)c(Cl)c2)c(=O)c2ccc(C)nc21 -9.02%, CCN1CCSc2ccc(C(=O)NCc3ccc(OC(C)C)cc3)cc21 -21.4%, COc1ccc(-c2noc(CSCC(=O)Nc3cc(OC)c(OC)c(OC)c3)n2)cc1OC 1.88%, CCOc1ccc(-c2cc3c(=O)n(CC(=O)NCc4ccc(C)cc4)ccn3n2)cc1 -3.74%, COc1ccc(N(Cc2cc3ccccc3[nH]c2=O)C(=O)c2cccc(Cl)c2)cc1 -21.9%, CCn1ccc(NS(=O)(=O)c2ccc(N)cc2)nc1=O 3.42%, CCOC(=O)Cc1ccc(NC(=O)NCc2c(-n3cccc3)sc3c2CCCC3)cc1 24.2%, CC(=O)N1c2ccccc2CC1C(=O)N1CCN(c2ccccc2)CC1 (configuration not stated) -0.0078%, O=C(CS(=O)(=O)c1cccc2nsnc12)Nc1ccccc1Cl -3.91%, O=C(/C=C/c1ccccc1)Nc1cc(-c2nc3cc(Cl)ccc3o2)ccc1Cl 38.7%, Cc1cccc(OCC(=O)Nc2cccc(OCc3cc(=O)n4cccc(C)c4n3)c2)c1 11.4%, Cc1cc2nc(-c3cccc(NC(=O)c4cccc5ccccc45)c3)oc2cc1C 6.43%
